# Results taken from PubChem BioAssay AID504706 (National Center for Advancing Translational Sciences (NCATS), 2011).
# Screen size: about 320,000 compounds; about 200 (0.062%) were called active. Calls follow the shape of the dose curve; as a rule, active = well fitted activation curve with a large enough effect; inconclusive = small, poorly fitted or top-dose-only effect; inactive = no such curve, though single readings can be large or run the other way. The inconclusive results got no clear call from the source. Potencies of inconclusive entries are left out as doubtful fits.
# Test: qHTS assay for re-activators of p53 using a Luc reporter; also: nearly all actives have a fitted effect of over 45% in size
# Details: H1299 p53-A138V BP100-luciferase reporter, luminescence, 24 h; series mostly up to 92.2 µM
# From the text: The p53 tumor suppressor plays a key role in suppression of tumorigenesis and in human carcinogenesis. It is frequently found inactivated in human cancers, mainly by point mutation. These point mutations are found in a wide variety of human cancers and a majority of them affect the DNA binding domain of the protein. The point mutations either alter native p53 conformation or abolish DNA contact. Additionally, cancer cells with p53 mutations are more resistant to chemo-radiation therapies. In order to find activators to reactivate this important protein, a cell-based screen for p53-dependent luciferase-reporter expression was developed. A p53-null H1299 lung cancer cell line was stably co-transfected with a temperature sensitive p53 mutant, p53-A138V, and a p53-responsive BP100-luciferase reporter. This cell model has previously been characterized in a gene chip profiling experiment for p53 activation. By lowering the culture temperature from 37 deg C (mutant p53 conformation) to 32 deg C (w.t. p53 conformation), a 30-60 fold increase in activation of luciferase activity is observed. At assay temperate, 37 deg C, basal reporter expression is very low and after the addition of detection reagent, a luminescent read-out is carried out. NIH Chemical Genomics Center [NCGC] NIH Molecular Libraries Probe Production Centers Network [MLPCN] MLPCN Grant: DA031088-01A1 Assay Provider (PI): Yi Sung, University of Michigan at Ann Arbor
# 5ul of 1000 cells per well are dispensed in all wells except column 4, into white solid-bottom TC-treated Kalypsys plates. The cells are kept in Opti-MEM and supplemented with 10% FBS and dispensed using a Multidrop (Thermo). Then using the Kalypsys pin-tool, 23nl of compounds are pinned. The compounds are starting concentration at 10mM, with 1:5 dilution, 4 points, and the control compound nocodazole is pinned in column 1 at 25mM, 1:3 dilution, in duplicate, 25mM nocodazole is pinned in column 2. […] Plates are incubated for 10 min at ambient room temperature and are then read on the ViewLux (Perkin Elmer) using a clear filter for a luminescent read-out.
# Potency is read from the fitted curve at half-maximal effect; tags tell the direction and shape of the fitted curve.
row,Structure (SMILES),Potency
1,CC(c1ccccc1)N1C(=O)c2ccc(C(=O)Nc3ccccc3C(=O)O)cc2C1=O (stereo not drawn),"inconclusive [activator, partial curve, poor fit]"
2,O=C(COc1ccc(Cl)cc1)Nc1cc(NC(=O)COc2ccc(Cl)cc2)cc(C(=O)O)c1,"inconclusive [activator, single point]"
3,O=C(O)Cn1cc(/C=c2/sc3nc4ccccc4n3c2=O)c2ccccc21,"inconclusive [activator, partial curve, poor fit]"
